# Data: patent US20250361279A1 (Hoffmann-La Roche, published 2025)
# Columns and labels:
# [1] = molecular target: T1, IL-7 receptor (IL-7R alpha chain and common gamma chain) on human T cells (human, UniProt P16871 21-459; P31785 23-369); assay: flow cytometry, fresh PBMCs, naive (TCF-1+ PD-1-) CD4 T cells; set-up: unit not given beside the values
# T1 construct: whole, on cells; Endogenous receptor on CD4 and CD8 T cells of healthy donors; also called IL-7Rα; CD127
# T1 sequence (looked up) 1: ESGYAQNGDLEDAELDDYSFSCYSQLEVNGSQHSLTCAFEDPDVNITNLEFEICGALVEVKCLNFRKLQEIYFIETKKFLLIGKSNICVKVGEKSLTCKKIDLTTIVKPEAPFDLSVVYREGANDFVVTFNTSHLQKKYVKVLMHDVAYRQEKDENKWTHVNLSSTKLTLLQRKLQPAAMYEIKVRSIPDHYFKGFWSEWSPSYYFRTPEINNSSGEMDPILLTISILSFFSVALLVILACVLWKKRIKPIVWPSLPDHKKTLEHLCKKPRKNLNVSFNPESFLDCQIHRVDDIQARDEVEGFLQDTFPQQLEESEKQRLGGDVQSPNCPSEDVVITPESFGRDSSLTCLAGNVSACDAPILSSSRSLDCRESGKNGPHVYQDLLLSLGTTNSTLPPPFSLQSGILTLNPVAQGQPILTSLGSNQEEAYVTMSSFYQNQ
# T1 sequence (looked up) 2: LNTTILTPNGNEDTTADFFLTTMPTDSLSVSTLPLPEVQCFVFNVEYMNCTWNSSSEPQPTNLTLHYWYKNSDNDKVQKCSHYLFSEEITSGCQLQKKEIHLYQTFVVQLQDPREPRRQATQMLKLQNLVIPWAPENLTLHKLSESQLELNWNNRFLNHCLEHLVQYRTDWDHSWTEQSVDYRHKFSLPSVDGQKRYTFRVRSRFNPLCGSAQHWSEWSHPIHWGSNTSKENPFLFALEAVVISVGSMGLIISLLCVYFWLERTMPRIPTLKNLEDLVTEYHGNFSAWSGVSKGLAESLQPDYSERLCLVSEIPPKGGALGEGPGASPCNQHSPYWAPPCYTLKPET
# [2] = molecular target: T1, IL-7 receptor (IL-7R alpha chain and …); assay: cell-based or functional assay
# [3] = molecular target: T1, IL-7 receptor (IL-7R alpha chain and …); assay: flow cytometry, fresh PBMCs, naive (TCF-1+ PD-1-) CD4 T cells
# [4] = molecular target: T2, human PD-1 on activated CD4 T cells (human, UniProt Q15116 25-288); assay: cell-based or functional assay
# [5] = molecular target: T1, IL-7 receptor (IL-7R alpha chain and …); assay: cell-based or functional assay; remark: listed apart in the source
# [6] = molecular target: T1, IL-7 receptor (IL-7R alpha chain and …); assay: flow cytometry, fresh PBMCs, bystander (PD-1- TCF-1-) CD8 T cells
# [7] = molecular target: T1, IL-7 receptor (IL-7R alpha chain and …); assay: flow cytometry, fresh PBMCs, bystander (PD-1- TCF-1-) CD4 T cells; set-up: unit not given beside the values
# [8] = molecular target: T1, IL-7 receptor (IL-7R alpha chain and …); assay: as above
# [9] = molecular target: T1, IL-7 receptor (IL-7R alpha chain and …); assay: flow cytometry, fresh PBMCs, bystander (PD-1- TCF-1-) CD8 T cells; set-up: unit not given beside the values
# [10] = molecular target: T1, IL-7 receptor (IL-7R alpha chain and …); assay: flow cytometry, fresh PBMCs, naive (TCF-1+ PD-1-) CD8 T cells
# [11] = molecular target: T1, IL-7 receptor (IL-7R alpha chain and …); assay: as above; set-up: unit not given beside the values
# [12] = molecular target: T2, human PD-1 on activated CD4 T cells; assay: cell-based or functional assay; remark: listed apart in the source
# [13] = molecular target: T1, IL-7 receptor (IL-7R alpha chain and …); assay: cell-based or functional assay; remark: listed apart in the source
# [14] = molecular target: T2, human PD-1 on activated CD4 T cells; assay: cell-based or functional assay; remark: listed apart in the source
# [15] = molecular target: T1, IL-7 receptor (IL-7R alpha chain and …); assay: cell-based or functional assay; remark: listed apart in the source
binder,measurement,setting,value
"P1AF7303 (Control: FAP (4B9) IgG kh PGLALA huIL7wt; 3G4S linker) (other, Untargeted control: anti-FAP IgG1 knob-into-hole PGLALA with human IL-7 wild-type on the knob heavy chain; also called FAP-IL7 wt; FAP-IL7wt) light: EIVLTQSPGTLSLSPGERATLSCRASQSVTSSYLAWYQQKPGQAPRLLINVGSRRATGIPDRFSGSGSGTDFTLTISRLEPEDFAVYYCQQGIMLPPTFGQGTKVEIKRTVAAPSVFIFPPSDEQLKSGTASVVCLLNNFYPREAKVQWKVDNALQSGNSQESVTEQDSKDSTYSLSSTLTLSKADYEKHKVYACEVTHQGLSSPVTKSFNRGEC heavy 1: EVQLLESGGGLVQPGGSLRLSCAASGFTFSSYAMSWVRQAPGKGLEWVSAIIGSGASTYYADSVKGRFTISRDNSKNTLYLQMNSLRAEDTAVYYCAKGWFGGFNYWGQGTLVTVSSASTKGPSVFPLAPSSKSTSGGTAALGCLVKDYFPEPVTVSWNSGALTSGVHTFPAVLQSSGLYSLSSVVTVPSSSLGTQTYICNVNHKPSNTKVDKKVEPKSCDKTHTCPPCPAPEAAGGPSVFLFPPKPKDTLMISRTPEVTCVVVDVSHEDPEVKFNWYVDGVEVHNAKTKPREEQYNSTYRVVSVLTVLHQDWLNGKEYKCKVSNKALGAPIEKTISKAKGQPREPQVCTLPPSRDELTKNQVSLSCAVKGFYPSDIAVEWESNGQPENNYKTTPPVLDSDGSFFLVSKLTVDKSRWQQGNVFSCSVMHEALHNHYTQKSLSLSPGK heavy 2: EVQLLESGGGLVQPGGSLRLSCAASGFTFSSYAMSWVRQAPGKGLEWVSAIIGSGASTYYADSVKGRFTISRDNSKNTLYLQMNSLRAEDTAVYYCAKGWFGGFNYWGQGTLVTVSSASTKGPSVFPLAPSSKSTSGGTAALGCLVKDYFPEPVTVSWNSGALTSGVHTFPAVLQSSGLYSLSSVVTVPSSSLGTQTYICNVNHKPSNTKVDKKV[sequence of human IgG1 Fc with changes omitted]GGGGSGGGGSGGGGSDCDIEGKDGKQYESVLMVSIDQLLDSMKEIGSNCLNNEFNFFKRHICDANKEGMFLFRAARKLRQFLKMNSTGDFDLHLLKVSEGTTILLNCTGQVKGRKPAALGEAQPTKSLEENKSLKEQKKLNDLCFLKRLLQEIKTCWNKILMGTKEH",AUC of dose-response binding (frequency of anti-PGLALA+ cells),[1],385
same,EC50[active]/EC50 [active PD1-IL7wt],[2],0.8 fold
same,EC50[fresh]/EC50 [fresh PD1-IL7wt],[2],0.5 fold
same,fold reduction in binding compared to P1AF7303,[3],1 fold
same,"Cis-delivery: fold increase in EC50, EC50 [with PD1bl]/EC50 [no PD1bl]",[4],1 fold
same,Potency reduction to PD1-IL7wt: EC50 (PD1+)/EC50 (PD1-IL7wt),[5],1 fold
same,fold reduction in binding compared to P1AF7303,[6],1 fold
same,AUC of dose-response binding (frequency of anti-PGLALA+ cells),[7],290
same,fold reduction in binding compared to P1AF7303,[8],1 fold
same,AUC of dose-response binding (frequency of anti-PGLALA+ cells),[9],248
same,fold reduction in binding compared to P1AF7303,[10],1 fold
same,AUC of dose-response binding (frequency of anti-PGLALA+ cells),[11],396
same,"Cis-delivery: fold increase in EC50, EC50 [with PD1bl]/EC50 [no PD1bl]",[12],0.9 fold
same,Delta AUC (PD1+ vs PD1bl.),[12],7.3
same,Potency reduction to PD1-IL7wt: EC50 (PD1+)/EC50 (PD1-IL7wt),[13],0.6 fold
same,"STAT-5P AUC, PD1+ CD4 T cells",[13],117
same,"STAT-5P AUC, PD1-blocked CD4 T cells",[13],110
same,"Cis-delivery: fold increase in EC50, EC50 [with PD1bl]/EC50 [no PD1bl]",[14],0.9 fold
same,Delta AUC (PD1+ vs PD1bl.),[14],3
same,Potency reduction to PD1-IL7wt: EC50 (PD1+)/EC50 (PD1-IL7wt),[15],9.4 fold
same,"STAT-5P AUC, PD1+ CD4 T cells",[15],103
same,"STAT-5P AUC, PD1-blocked CD4 T cells",[15],99.6

# Where two headings read alike, the source gives them in different places.
